These are yes or no findings as the source states them, for the method shown.
Molecular target: Rdj2 (also called DnaJA2), transfected (UniProt O35824)
Assay: SDS-resistant dimer on SDS-PAGE with Western blot; lysates of transiently transfected CAD cells, control or treated 24 h with quercetin (up to 200 µM), EGCG or other agents; 30-40 µg protein in SDS sample buffer at 37°C or 80°C; dimer at ∼72 kDa

Amino acid sequences for entries named in this document (tags omitted).
UniProt O35824: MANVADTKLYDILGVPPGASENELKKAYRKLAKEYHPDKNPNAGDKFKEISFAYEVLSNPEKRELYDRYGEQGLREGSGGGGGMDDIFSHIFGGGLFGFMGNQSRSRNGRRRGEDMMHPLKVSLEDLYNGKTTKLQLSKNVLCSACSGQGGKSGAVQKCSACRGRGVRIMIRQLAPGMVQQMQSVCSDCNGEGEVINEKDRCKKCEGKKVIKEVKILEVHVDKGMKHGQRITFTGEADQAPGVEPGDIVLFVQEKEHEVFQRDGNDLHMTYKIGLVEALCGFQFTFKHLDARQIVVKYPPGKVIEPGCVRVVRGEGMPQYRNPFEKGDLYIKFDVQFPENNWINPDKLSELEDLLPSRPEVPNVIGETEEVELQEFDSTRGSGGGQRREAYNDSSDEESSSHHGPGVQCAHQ

Rdj2 (also called DnaJA2), transfected (from UniProt O35824 1-412)
binding: no binding

— PMC2883571, “Quercetin Targets Cysteine String Protein (CSPα) and Impairs Synaptic Transmission” (PLoS ONE, 2010)
